# Results as given in patent publication EP0452680A1 (priority 1990, dated 1991).
# Experiments:
# Herpes simplex Virus 1 [1] = assay: microbe, parasite or virus in culture; settings: Human alphaherpesvirus 1, read-out: MHK (Minimale Hemmkonzentration)
# Herpes simplex Virus 2 = assay: microbe, parasite or virus in culture; settings: Human alphaherpesvirus 2, read-out: MHK (Minimale Hemmkonzentration)
# Vaccinia Virus = assay: microbe, parasite or virus in culture; settings: Orthopoxvirus vaccinia, read-out: MHK (Minimale Hemmkonzentration)
# [2] = tested on: Vesikular Stomatitis Virus; assay: microbe, parasite or virus in culture; settings: Vesicular stomatitis virus, read-out: MHK (Minimale Hemmkonzentration)
# Herpes simplex Virus 1 [3] = assay: In vivo HSV-1 infection of NMRI mice, survival; parameters: species or system NMRI-Mäuse; settings: first dose 3 h after infection, twice daily, observation two weeks
# [4] = intraperitoneal, 9 x 10 µmol/kg
# [5] = intraperitoneal, 9 x 30 µmol/kg
# [6] = intraperitoneal, 9 x 100 µmol/kg
SMILES,MIC (Herpes simplex Virus 1 [1]),MIC (Herpes simplex Virus 2),MIC (Vaccinia Virus),MIC [2],mittlere Überlebenszeit (Herpes simplex Virus 1 [3]; [4]),Überlebende / gesamt (Herpes simplex Virus 1 [3]; [4]),Überlebende / gesamt (Herpes simplex Virus 1 [3]; [5]),Überlebende / gesamt (Herpes simplex Virus 1 [3]; [6]),"mittlere Überlebenszeit (Herpes simplex Virus 1 [3]; oral, 9 x 10 µmol/kg)","Überlebende / gesamt (Herpes simplex Virus 1 [3]; oral, 9 x 10 µmol/kg)","Überlebende / gesamt (Herpes simplex Virus 1 [3]; oral, 9 x 30 µmol/kg)","Überlebende / gesamt (Herpes simplex Virus 1 [3]; oral, 9 x 100 µmol/kg)",mittlere Überlebenszeit (Herpes simplex Virus 1 [3]; [5]),mittlere Überlebenszeit (Herpes simplex Virus 1 [3]; [6]),"mittlere Überlebenszeit (Herpes simplex Virus 1 [3]; oral, 9 x 30 µmol/kg)","mittlere Überlebenszeit (Herpes simplex Virus 1 [3]; oral, 9 x 100 µmol/kg)"
"CC(C)OCC(CO)OCn1cnc2nc(N)ncc21 (stereo not drawn) [Beispiel 6.10., 2-Amino-7-(1-hydroxy-3-isopropoxy-2-propoxymethyl)-purin]",> 400 µg/mL,> 400 µg/mL,> 400 µg/mL,> 400 µg/mL,10.0 +/- 1.4 Tage,3 / 5,5 / 5,5 / 5,10.0 +/- 0.0 Tage,4 / 5,5 / 5,5 / 5,,,,
"Nc1ncc2c(ncn2COC(CO)CO)n1 [Beispiel 6.12., 2-Amino-7-(1,3-dihydroxy-2-propoxymethyl)-purin]",1.65 µg/mL,1.65 µg/mL,4.94 µg/mL,> 400 µg/mL,,5 / 5,5 / 5,5 / 5,8.3 +/- 1.5 Tage,2 / 5,5 / 5,5 / 5,,,,
Nc1nc2ncn(COC(CO)CO)c2c(=O)[nH]1 [reference compound],> 400 µg/mL,> 400 µg/mL,> 400 µg/mL,> 400 µg/mL,10.0 +/- 1.4 Tage,3 / 5,4 / 5,2 / 5,6.5 +/- 2.1 Tage,3 / 5,3 / 5,3 / 5,10.0 +/- 0.0 Tage,9.3 +/- 2.1 Tage,8.5 +/- 0.7 Tage,9.0 +/- 1.4 Tage
"CC(C)OCC(COC(C)C)OCn1cnc2nc(N)ncc21 [Beispiel 6.7., 2-Amino-7-[1,3-bis(isopropoxy)-2-propoxymethyl]purin]",> 400 µg/mL,> 400 µg/mL,> 400 µg/mL,> 400 µg/mL,7.0 +/- 0.0 Tage,4 / 5,5 / 5,5 / 5,,5 / 5,5 / 5,5 / 5,,,,
Nc1nc2c(ncn2COC(CO)CO)c(=O)[nH]1 [reference compound],4.94 µg/mL,1.65 µg/mL,> 400 µg/mL,133 µg/mL,,,,,,,,,,,,
